Whole data set: some 33,000 sequences, median “E-score (-0.5 to 0.5)” near -0.012, cut for the highest 2% near 0.29. This is one part of the list.
target: T1, Ybr033w (UniProt P38073); test: PBM E-score (8-mer binding enrichment) (E-score (-0.5 to 0.5)); higher = stronger / more preferred TF binding; most listed sequences are background and not binding sites; conditions: protein concentration: 200 nM; construct: GST-full length
T1 sequence: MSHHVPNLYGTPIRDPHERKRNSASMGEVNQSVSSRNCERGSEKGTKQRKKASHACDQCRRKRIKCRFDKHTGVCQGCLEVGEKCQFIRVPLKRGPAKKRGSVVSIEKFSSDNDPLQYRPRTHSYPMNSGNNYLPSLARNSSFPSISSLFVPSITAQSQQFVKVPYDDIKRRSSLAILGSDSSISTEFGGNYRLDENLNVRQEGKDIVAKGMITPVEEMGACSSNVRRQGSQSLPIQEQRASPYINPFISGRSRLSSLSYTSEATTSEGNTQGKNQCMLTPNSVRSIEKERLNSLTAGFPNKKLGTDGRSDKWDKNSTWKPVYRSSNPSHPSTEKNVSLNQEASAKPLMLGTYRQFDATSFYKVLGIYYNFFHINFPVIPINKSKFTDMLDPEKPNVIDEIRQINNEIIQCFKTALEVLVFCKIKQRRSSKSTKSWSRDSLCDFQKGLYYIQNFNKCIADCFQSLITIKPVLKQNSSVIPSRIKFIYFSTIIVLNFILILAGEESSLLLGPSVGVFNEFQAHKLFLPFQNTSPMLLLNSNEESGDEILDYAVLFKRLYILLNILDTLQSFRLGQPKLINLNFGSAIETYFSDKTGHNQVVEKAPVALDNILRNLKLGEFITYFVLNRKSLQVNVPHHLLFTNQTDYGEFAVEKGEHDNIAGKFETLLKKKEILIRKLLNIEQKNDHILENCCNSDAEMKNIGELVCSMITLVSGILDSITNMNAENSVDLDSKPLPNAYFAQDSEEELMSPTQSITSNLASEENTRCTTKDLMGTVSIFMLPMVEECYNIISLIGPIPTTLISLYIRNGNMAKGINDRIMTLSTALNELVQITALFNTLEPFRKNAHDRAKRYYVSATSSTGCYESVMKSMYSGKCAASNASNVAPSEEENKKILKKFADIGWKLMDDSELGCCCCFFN
How it was run: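 Full-length yeast transcription factors or their DNA-binding domains, GST-tagged and expressed with PURExpress, were applied at about 100-200 nM to universal all-10-mer Agilent arrays. These arrays had been made double-stranded by primer extension on fresh or once-stripped slides. Detection used fluorescent anti-GST, normalisation used masliner, and E-scores for ungapped eight-base words pooled with reverse complements came from the Universal PBM Analysis Suite.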

Sequence | PBM E-score
CTGGCCAG | -0.382
AGCACAAG | -0.0143
ACGCTCAA | 0.0741
CGCGCCCG | -0.259
CGCCGCAC | -0.233
CGACTGTC | -0.17
AAGCCTGT | 0.00849
CGCAAATC | -0.0144
CTGCCACA | -0.146
GTTACCTA | 0.00439
CAGGCTAA | -0.0897
CGAAAACA | -0.0127
AGATCCGA | -0.0352
CGAGAGCA | -0.0204
ATTTCCGC | 0.15
CTTGAAAA | 0.207
AACCGGTC | -0.164
AGACCGGA | -0.175
ATCCCCTA | -0.106
AATTTCCC | 0.226
TAAATTGA | 0.265
ATCCCGAA | 0.0959

Sequence | PBM E-score
AGAGCATG | -0.191
AATGTTCT | 0.16
CTACTAAG | 0.0778
GTAGTCTA | 0.107
CGGTACTA | -0.0881
TGCATACA | 0.133
AGCGCGTA | 0.0918
GCGGACGA | -0.166
ACCTGAAG | -0.0699
AAATAGGT | 0.147
AGTAAACT | 0.185
CGGCAGAG | -0.338
AAGTCATG | -0.0623
ACACATTC | 0.0739
AAATGAGA | 0.00643
CACTGAGA | -0.112
AGAGGGAA | -0.181
CCGCAACC | -0.0709
AATCGTTG | 0.126
CAGGTCAG | -0.0403
GCAGGTCA | -0.277
AACCGGGT | 0.0127

Sequence | PBM E-score
ACACAGAA | 0.0754
GGAAACGA | -0.0233
AAGCAGCC | -0.143
AGAATTAA | 0.209
TCCGCCGA | -0.0526
AACCGGTT | -0.176
AATGCCAT | -0.0186
CTAACGTA | 0.0957
GGTATCTA | 0.0279
GTAATTAA | 0.105
AGAGTGAC | -0.147
TCATATGA | 0.2
ACGCTCTC | -0.281
GATATAAA | 0.142
GATTATGC | 0.0323
ACGGCAAC | -0.169
CCCGAGCG | -0.0658
AAGAACCT | 0.154
CTATGTCA | 0.0495
ACTATTGG | -0.146
CCTAATGA | 0.0448
CGTTGAGA | 0.0633

Sequence | PBM E-score
ACAACTTG | 0.00851
AGGCTTTC | 0.0556
ACACCACA | 0.121
ACCCTTGC | -0.0854
AACGCACC | -0.0917
ACTGTATC | -0.101
ATACAGTC | -0.163
ATCTTCGC | 0.0516
GGAAATAA | 0.284
AAAAGGGG | -0.348
ATGGAATG | 0.0355
CCCCGGCA | -0.179
AGGCATAG | -0.0396
CATTACAG | 0.0258
TCGTAGAA | -0.0364
ATAGGTGC | -0.0848
CGAGATAA | 0.166
CGGGTTAA | 0.21
CGCCATCA | -0.285
GGGGTGTA | -0.22

— the supplement of paper PMC3334620
